Laboratory results as given in PubChem BioAssay AID624171 (National Center for Advancing Translational Sciences (NCATS), 2012).
The campaign covered roughly 410,000 compounds. About 1,200 (0.29%) were called active. This list was built around the results that the source calls inconclusive (neither active nor inactive); the mix of calls is not that of the screen. The call rests on the fitted dose curve; in most records, active means well fitted activation curve with a large enough effect; inconclusive means small, poorly fitted or top-dose-only effect; inactive means flat fitted curve, though single readings scatter. Potencies beside an inconclusive call are fits to weak or partial responses and may not hold up.

Assay: qHTS of Nrf2 Activators; further: nearly all actives have a fitted effect of over 65% in size
Conditions: AREc32 ARE-luciferase reporter (MCF7-derived line), luminescence, 24 h; series mostly up to 46.1 µM
In short: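 AREc32 cells carrying an ARE-driven firefly luciferase reporter were seeded at 1000 cells/well in OPTI-MEM with 5% FBS, then exposed to compound for 24 hr at 37 deg C. Luminescence was read with Steady-Glo after 30 min at RT.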
Potency means the concentration at half of the fitted maximal effect; tags describe the fitted curve by direction and shape.

Potency, active:
Clc1ccc(C=Cc2ccccn2)cc1 8.91 µM, O=C(N/N=C/C(Br)=C/c1ccccc1)c1ccccc1F 12.6 µM, Clc1ccc(-c2csc(N/N=C/c3ccco3)n2)cc1 8.91 µM

Potency, inconclusive:
COc1cc2c(cc1OC)/C(=C/c1ccc(Cl)cc1)C(=O)OC2 10 µM [activator, partial curve], Cc1nc2ccccc2c(=O)n1NCc1cccs1 15.8 µM [activator, partial curve, poor fit], Fc1cccc(/C=N/Nc2nncc3ccccc23)c1 2.82 µM [activator, full curve, poor fit], O=[N+]([O-])c1cnccc1-n1nnc2ccccc21 10 µM [activator, partial curve], Cn1c(=O)nc2n(Cc3ccccc3)c3cccc(Cl)c3cc-2c1=O 11.2 µM [activator, partial curve, poor fit], O=C(Nc1cc2ccccc2oc1=O)c1ccccc1 3.55 µM [activator, partial curve, poor fit], O=C1C=C(c2cc3ccccc3s2)CCC1 12.6 µM [activator, partial curve, poor fit], O=c1[nH]ncc(N/N=C\c2ccc(O)cc2O)c1Cl 14.1 µM [activator, single point], Cc1cc(Cl)ccc1NC(=O)C(=O)NCc1ccco1 31.6 µM [activator, single point], O=C(Nc1cccc2ncccc12)c1cc(Br)ccc1Cl 12.6 µM [activator, partial curve, poor fit], O=C1NC(=Nc2ccc(Cl)cc2)/C(=C/c2ccco2)S1 11.2 µM [activator, partial curve, poor fit]

Potency, inactive:
CCc1cccc(NC(=O)Cn2c(=O)ccc3cc(S(=O)(=O)N4CCC(C)CC4)ccc32)c1, CC(C)(O)C#Cc1ccc(C(=O)NC2CCCCC2)s1, Cc1ccc(S(=O)(=O)c2nnn3c2nc(Nc2cccc(C)c2)c2ccccc23)cc1, O=C(Cn1cc(SCc2c(F)cccc2Cl)c2ccccc21)N1CCCCCC1, CCC(=O)N1N=C(c2ccc(C)o2)CC1c1ccc(N(C)C)cc1 (stereo not drawn), Cc1ccc2c(c1)-c1cc(C)nn1C(c1sccc1C)N2 (stereo not drawn), Cc1ccc2nc(N3CCN(c4cccc(Cl)c4)CC3)c(-n3nc(C)cc3C)nc2c1, c1ccc(CNc2ncnc3c2oc2ccccc23)nc1, CCOc1ccc(Sc2cc(C(=O)NC(C)c3ccccc3)c3ccccc3n2)cc1 (stereo not drawn)
